Test results from PubChem BioAssay AID360 (National Center for Advancing Translational Sciences (NCATS), 2006).
Among all 48,000 compounds or so, about 550 (1.1%) were called active. Roughly 4% stayed inconclusive and do not appear here. Cut-off read from the data, not from the text of the source: active = potency below about 15 µM; inconclusive = mostly about 16 µM to 33 µM; inactive = weaker than that. This is one part of the list.

These molecules were tested against Lysosomal acid glucosylceramidase (Homo sapiens) (UniProt P04062) (assay: Glucocerebrosidase). Conditions: purified enzyme, resorufin glucoside fluorescence (screen aimed at inhibitors), 20 min.
Chain of UniProt P04062 (P04062 whole entry, looked up): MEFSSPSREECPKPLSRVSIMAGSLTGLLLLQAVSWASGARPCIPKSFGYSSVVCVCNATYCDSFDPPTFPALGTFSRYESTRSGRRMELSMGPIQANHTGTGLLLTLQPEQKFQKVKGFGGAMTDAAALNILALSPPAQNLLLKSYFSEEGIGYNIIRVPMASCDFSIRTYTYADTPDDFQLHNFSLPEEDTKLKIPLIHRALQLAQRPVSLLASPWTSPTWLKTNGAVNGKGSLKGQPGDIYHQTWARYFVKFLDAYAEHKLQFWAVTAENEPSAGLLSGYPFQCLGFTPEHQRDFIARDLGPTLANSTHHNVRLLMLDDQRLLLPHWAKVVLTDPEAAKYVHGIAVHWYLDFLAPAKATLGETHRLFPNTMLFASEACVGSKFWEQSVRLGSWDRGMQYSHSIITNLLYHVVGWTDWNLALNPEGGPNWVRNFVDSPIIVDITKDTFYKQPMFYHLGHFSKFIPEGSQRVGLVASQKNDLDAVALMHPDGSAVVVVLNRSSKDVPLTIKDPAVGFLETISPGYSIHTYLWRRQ
Summary of the method: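 Wild-type enzyme at 0.2 nM final in 50mM citric acid/KH2PO4, 10mM sodium taurocholate, 0.01% tween-20, pH 5.9, with resorufin beta-D-glucopyranoside at 30 uM final. Compounds titrated, 20 min at RT, red fluorescence read; AC50 from titration.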
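Note: the screen sought inhibitors.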
Potency is the fitted concentration of half-maximal effect.

Potency, inactive:
O=C(c1ccc(COc2c(F)c(F)cc(F)c2F)o1)N1CCN(c2ccc(Cl)cc2)CC1 > 15.4 µM, CCN(Cc1cc2cc(C)ccc2[nH]c1=O)C(=O)c1cccc(OC)c1 > 76.9 µM, CN1CCN(S(=O)(=O)c2ccc(NC(=O)C3CCCO3)cc2)CC1 (stereo not drawn) > 76.9 µM, O=C(CC1(O)C(=O)Nc2ccccc21)c1ccc(-n2cccc2)cc1 (stereo not drawn) > 76.9 µM, CCCc1cc(=O)[nH]c(SCC(=O)NC(=O)c2ccccc2)n1 > 76.9 µM, O=C(c1nn2cccnc2c1Cl)N1CCN(c2ccccc2)CC1 > 76.9 µM, COc1ccc(-c2nnc3ccc(SCC(=O)N4CCN(c5ccccc5)CC4)nn23)cc1 > 76.9 µM, CCOc1cc(N2CCOCC2)c(OCC)cc1NC(=O)CSc1cccc[n+]1[O-] > 76.9 µM, CCOc1ccc(NC(=O)CSc2nnc(-c3ccccc3)n2N)cc1 > 76.9 µM, CCCn1c(SCC(=O)/C(C#N)=C(\C)N)n[nH]c1=O > 76.9 µM, Cc1cc(C)n(C(CC(=O)O)C(=O)O)n1 (stereo not drawn) > 76.9 µM, CC(=O)c1c(C)[nH]c(C(=O)NCc2ccccn2)c1C > 76.9 µM, COCCCn1c(=NC(=O)c2ccc3c(c2)OCO3)c(C#N)cc2c(=O)n3cccc(C)c3nc21 > 76.9 µM, C=CCn1c(CCC(=O)O)ccc1-c1ccccc1 > 76.9 µM, CCOC(=O)C(Cc1ccccc1)NS(=O)(=O)c1ccc(NC(C)=O)cc1 (stereo not drawn) > 76.9 µM, CC1CCCN(S(=O)(=O)c2ccc(Br)s2)C1 (stereo not drawn) > 76.9 µM, C=CCn1c(=O)c2c(C)c(C)sc2n2c(Nc3ccccc3)nnc12 > 76.9 µM, CSc1nsc(SC)c1NC(=O)N1CCCC1 > 76.9 µM, CC(=O)c1ccc(NC(=O)CSCCO)cc1 > 76.9 µM, COc1cccc(N(CC(=O)N2CCN(C)CC2)S(=O)(=O)c2ccccc2)c1 > 76.9 µM, COc1ccccc1OCc1nnc(SCC(=O)N2CCCCC2)n1-c1ccccc1 > 76.9 µM, CCn1c(SCC(=O)Nc2nc3ccc(C)cc3s2)nc2c(c1=O)SC(C)C2 (stereo not drawn) > 76.9 µM, CCOCCOC(=O)C1=C(C)Nc2ccc(C)cc2S1 > 76.9 µM, COc1cccc(C(=O)/C=C/Nc2cc(C)ccc2O)c1 > 76.9 µM, Oc1ccccc1C(=S)N1CCCCCC1 > 76.9 µM, CCOC(=O)CNC(=O)CSc1nnnn1-c1cc(C)ccc1C > 76.9 µM, Cc1cc(C)nc(N2CCCC(C(=O)NCc3cccc(C(F)(F)F)c3)C2)n1 (stereo not drawn) > 76.9 µM, COc1ccc(C(=O)CSc2nc(SC)ns2)cc1OC > 76.9 µM, Cc1cc(OCC(=O)c2ccc(F)cc2)ccc1N1C(=O)CCC1=O > 76.9 µM, Cc1ccc(-c2c3c(=O)n(C)c(=O)n(C)c3cn2-c2ccccc2O)cc1 > 76.9 µM, O=C(C1CCCN(S(=O)(=O)Cc2ccccc2)C1)N1CCc2ccccc21 (stereo not drawn) > 76.9 µM, COc1cc2c(=O)nc3n(c2cc1OC)C(c1ccccc1)N=C(N)N3 (stereo not drawn), COc1ccc(-c2cn3c4c(sc3n2)CCCC4)cc1 > 76.9 µM, O=C(c1ccccc1F)N1CCN(c2ccccc2)CC1 > 76.9 µM, c1ccc(CCN2CN=C(Nc3nc4ccccc4o3)NC2)cc1 > 76.9 µM, O=C(OCC(=O)c1ccco1)c1ccc2ncsc2c1 > 76.9 µM, CC1(C)CCCN(C(=O)c2coc(=O)c(Br)c2)C1 > 76.9 µM, CCOC(=O)c1oc2nc(C)c3c(c2c1N)CC(C)(C)OC3 > 76.9 µM, COc1cc2c(cc1OC)C(c1cccs1)CC(=O)N2 (stereo not drawn) > 76.9 µM, CCn1cc(C(=O)Nc2ccccc2C(=O)OC)c(=O)c2ccc(C)nc21 > 76.9 µM, COc1cc2cc(C)c3nnc(SCC(N)=O)n3c2cc1OC > 76.9 µM, CCn1nnnc1-c1ccc(OC)c(S(=O)(=O)Nc2ccc(OC)cc2)c1 > 76.9 µM, COc1ccc2nc(SCC(N)=O)cc(C)c2c1 > 76.9 µM, O=S(=O)(c1ccccc1)N1CCN(C2CCCCCCC2)CC1 > 76.9 µM, COc1cc(C(=O)O)ccc1OCC(=O)N1CCOCC1 > 76.9 µM, Cn1nc(C(=O)OCC(=O)N2CCc3ccccc32)c2ccccc2c1=O > 76.9 µM, O=C(CSc1nc2cc(Cl)ccc2s1)NC(=O)NCc1ccco1 > 76.9 µM, N=c1c(S(=O)(=O)c2ccccc2)cc2c(=O)n3ccccc3nc2n1Cc1ccco1 > 76.9 µM, N#Cc1cn(CC(=O)NCCc2c[nH]c3ccccc23)c2ccccc12 > 76.9 µM, Cc1ccc(N2C(=O)[C@@H]3[C@H](C2=O)C2c4ccccc4C=CN2[C@@H]3C(=O)c2ccco2)cc1 (stereo partly drawn) > 76.9 µM, COC(=O)CCCc1nc2ccccc2s1 > 76.9 µM, Cc1cc(NC(=O)Cn2cnc3sc(C)c(-c4ccccc4)c3c2=O)no1 > 76.9 µM, C=CCn1c(SCC(=O)Nc2nc(C)cs2)nnc1C(CO)NC(=O)c1ccccc1 (stereo not drawn) > 76.9 µM, O=C(O)c1cc(=O)cc(C(=O)O)[nH]1 > 76.9 µM, COC(=O)c1ccc(OCCN2C3=NCCN3c3ccccc32)cc1, CCN(CCCNC(=O)C1CCC(=O)N1C1CCCC1)c1cccc(C)c1 (stereo not drawn) > 76.9 µM, CC(=O)Nc1cccc(-c2nnc(SCC(=O)N3CCCCC3)n2C)c1 > 76.9 µM, O=c1c2ccccc2nc2ccc(NCc3ccco3)nn12 > 76.9 µM, Cn1c(-c2ccc(CN3CCCCC3)o2)nc2ccccc21 > 76.9 µM, CCOc1ccc(C2CC(=O)NC3=C2C(=O)CCC3)cc1Cl (stereo not drawn) > 76.9 µM, c1ccc(CSc2nnc(-c3c[nH]c4ccccc34)o2)cc1 > 76.9 µM, COc1cccc(CNCC(=O)N2C(C)CCCC2C)c1 (stereo not drawn), O=C(CSc1nnnn1Cc1ccccc1)NCCc1ccccc1 > 76.9 µM, CC(=NC(C)C)C1=C(O)CCC1=O > 76.9 µM, Cn1c(=O)c2cc(S(=O)(=O)NCCC(=O)NCCC3=CCCCC3)ccc2n(C)c1=O > 76.9 µM, COc1cccc(NC(=O)CSc2nc3ccccc3c(=O)n2CCCC(=O)N2CCCC2)c1 > 76.9 µM, Cn1c(=O)[nH]c(=O)c2c1nc(Br)n2CCC(=O)c1ccccc1 > 76.9 µM, CC(=O)Nc1ccc(C(=O)CSc2nc3ccccc3n2CC(=O)N2CCCC2)cc1 > 76.9 µM, CN(CC(=O)NC1CCCCC1)S(=O)(=O)c1ccc(Cl)cc1 > 76.9 µM, Cc1ccsc1C1CC(=O)NC2=C1C(=O)CC(C)(C)C2 (stereo not drawn) > 76.9 µM, Cn1ncc(N)c1C(=O)Nc1cccc(C(F)(F)F)c1 > 76.9 µM, CCOC(=O)c1cccc(NC(=O)N[C@@H](C)C(=O)OC)c1 > 76.9 µM, CCn1c(SCC(=O)NCCc2ccc(Cl)cc2)nnc1-c1cccs1 > 76.9 µM, O=C1c2ccccc2C(=O)N1CCC(=O)N1CCCc2ccccc21 > 76.9 µM, Oc1ccccc1-c1cc(-c2cccc(F)c2)n[nH]1 > 76.9 µM, CCOc1ccc(NC(=O)c2ccncc2)cc1, CC(C)NC(=O)c1nc2ccccc2s1, O=C(Nn1cnnc1)C(Sc1ccccc1)c1ccccc1 (stereo not drawn) > 76.9 µM, COc1ccc(-c2cc3nc4n(c(=O)c3s2)CCC4)cc1 > 76.9 µM, COc1ccc(C2=NO[C@@H]3C(=O)N(c4c(C)cccc4C)C(=O)[C@H]23)cc1OC > 76.9 µM, CCC(C)[C@H](NC(=O)NCc1cccs1)C(=O)OC (stereo partly drawn) > 76.9 µM, COCCNC(=O)CN(c1ccc(C)cc1)S(=O)(=O)c1ccccc1 > 76.9 µM, O=C(OCc1nc(-c2ccccc2)oc1COC(=O)c1ccco1)c1ccco1 > 76.9 µM, COc1ccc(C(=O)n2nc(-c3ccccc3)nc2N)cc1OC > 76.9 µM, O=C(OCc1cc2ccccc2[nH]c1=O)c1ccccn1 > 76.9 µM, CN(Cc1ccccc1)C(=O)c1cccc(NC(=O)c2ccco2)c1 > 76.9 µM, CCOCCCNC(=O)C1CCN(S(=O)(=O)N2CCCCC2)CC1 > 76.9 µM, CCN1CCCC1CNC(=O)C1c2ccccc2C(=O)N(CCOC)C1c1ccc(F)cc1 (stereo not drawn) > 76.9 µM, CCNC(=O)NC(C(=O)OC)C12CC3CC(CC(C3)C1)C2 (stereo not drawn) > 76.9 µM, CSc1ccc(S(=O)(=O)Nc2c(C)cccc2C)cc1 > 76.9 µM, Cc1cc(N2CCN(C(c3ccccc3)c3ccccc3)CC2)n2ncnc2n1 > 76.9 µM, CCS(=O)(=O)N1CCC(C(=O)N2CCN(c3ccccc3)CC2)CC1 > 76.9 µM, CCOC(=O)C1CCCN(Cc2nc(N)nc(Nc3ccccc3)n2)C1 (stereo not drawn) > 76.9 µM
